Experimental data: PubChem BioAssay AID686978 (National Center for Advancing Translational Sciences (NCATS), 2013)
In all, about 420,000 compounds went through this assay and about 64,000 (15%) were called active. This list was built around the results that the source calls inconclusive (neither active nor inactive); the mix of calls is not that of the screen. The call rests on the fitted dose curve; in most records, active means well fitted inhibition curve with a large enough effect; inconclusive means small, poorly fitted or top-dose-only effect; inactive means flat fitted curve, though single readings scatter. Potencies of inconclusive entries are left out as doubtful fits.

experiment: qHTS for Inhibitors of human tyrosyl-DNA phosphodiesterase 1 (TDP1): qHTS in cells in absence of CPT; conditions: DT40 Tdp1-/- hTDP1 cells, no CPT, ATP luminescence, 48 h; activity change, negative = growth inhibition: at 46.2 µM (top of the series) unless noted; further: nearly all actives have a fitted effect of over 55% in size
Summary of the method: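 Camptothecin absent (DMSO only). Human TDP1-complemented DT40 knockout cells, 400 cells/well, 37 °C for minimum 48 hr; ATP measured via CellTiter-Glo, 30 min dark incubation, luminescence.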
On the % scale 0 is the no-effect control and ±100 the full control effect; potency means the concentration at half of the fitted maximal effect; tags describe the fitted curve by direction and shape.

Row | Compound | Potency | activity change, negative = growth inhibition
1 | O=C1O[C@@H](c2ccccc2)C[C@@H](O)C(=O)CCCCc2ccccc21 | inconclusive [inhibitor, single point] | 
2 | COc1ccccc1CNC(=O)C(=O)c1cn(CC(=O)N2CCOCC2)c2ccccc12 |  | inactive: 18.9%
3 | COc1ccc(NC(=O)[C@@H]2CC=C[C@@H]3CCN(Cc4ccccc4)C(=O)[C@@H]32)cc1 | inconclusive [inhibitor, single point] | 
4 | NC(=O)C1CCCN(C(=O)c2ccc(-c3cccc(Cl)c3Cl)o2)C1 (configuration not stated) | inconclusive [inhibitor, single point] | 
5 | CCOC(=O)c1sc(Nc2cccc(Cl)c2)nc1C |  | inconclusive: -30.2% [inhibitor]
6 | O=C(N/N=C/c1ccc(Br)cc1)c1ccc(Br)o1 | inconclusive [inhibitor, single point] | 
7 | CCOC(CCn1c(SCc2ccc([N+](=O)[O-])cc2)nc2ccccc2c1=O)OCC | active: 13 µM | 
8 | CC(C)=NNC(=O)C1=NNC(=O)C1 |  | inactive: -1.44%
9 | Cc1ccccc1NC(=O)Nc1nc(C(N)C2CCCCC2)cs1 (configuration not stated) | inconclusive [inhibitor, single point] | 
10 | O=C(CCNc1cccc(F)c1)c1cc2ccccc2o1 | active: 14.6 µM | 
11 | CC1CCC(C(C)C)C(OCC(O)CNC(C)C)C1 (configuration not stated) | inconclusive [inhibitor, single point] | 
12 | Cc1ccc(NC(=O)CSc2nc(C3CCCC3)nc3c2c(=O)n(C)c(=O)n3C)c(C)c1 |  | inactive: 6.3%
13 | O=C(CSc1nccn1-c1ccc(F)cc1)Nc1cccc2ccccc12 | active: 14.6 µM | 
14 | Cc1cccc(N2CCN(C(=O)CNC(=O)Cc3ccccc3)CC2)c1C | inconclusive [inhibitor, partial curve] | 
15 | CC(=O)Nc1ccc(NC(=O)c2ccc(N(Cc3ccccc3C)S(C)(=O)=O)cc2)cc1 | inconclusive [inhibitor, single point] | 
16 | CCc1nnc(SCc2nc(-c3cccc(C)c3)oc2C)c2cc3sc(C)cc3n12 | inconclusive [inhibitor, single point] | 
17 | CCc1cc(=O)oc2c3c(cc(OCC(=O)NC4CC4)c12)OC(C)(C)CC3 | inconclusive [inhibitor, single point] | 
18 | Cn1c2ccccc2c2cnn(CC(=O)N3CCCCC3)c(=O)c21 |  | inactive: -5.7%
19 | NC(=O)CCCC1=NS(=O)(=O)c2ccccc2N1 |  | inactive: 2.92%
20 | CC(C)CC1CC(=O)OC1(C)C(=O)CSc1nc2ccccc2s1 (configuration not stated) |  | inactive: -22.1%
21 | COc1ccc(C(=O)COC(=O)CN2C(=O)C3C4C=CC(C5CC45)C3C2=O)cc1 (configuration not stated) |  | inactive: 0.878%
22 | CSCCC(NS(=O)(=O)c1ccc(C)cc1)C(=O)N1CCN(C(C)=O)CC1 (configuration not stated) |  | inactive: -0.275%
23 | COC(=O)c1cc(CNC(=O)c2ccc3ccccc3n2)cc(NC(=O)c2cccc(OC)c2)c1 |  | inactive: -13.6%
24 | OC(COCc1ccco1)CN1CCN(C(c2ccccc2)c2ccccc2)CC1 (configuration not stated) | inconclusive [inhibitor, single point] | 

Row | Compound | Potency | activity change, negative = growth inhibition
25 | Nc1ccc(OCCCc2c(N)nc(N)nc2N)cc1 | inconclusive [inhibitor, partial curve] | 
26 | Cc1ccc(Cl)cc1Nc1nn2c(=O)c3ccc(C(=O)NC4CCC(C)CC4)cc3nc2s1 (configuration not stated) | inconclusive [inhibitor, single point] | 
27 | CC(C)CNS(=O)(=O)c1ccc(S(=O)(=O)N2CCCN(Cc3ccccc3)C2)cc1 | inconclusive [inhibitor, single point] | 
28 | COc1ccccc1[C@@H]1C(c2ccc(F)cc2)=NN(c2ccccc2)[C@H]1C(=O)N1CCOC1=O | inconclusive [inhibitor, single point] | 
29 | CC1CC(C)CN(C(=O)CCn2c(=O)oc3ccccc32)C1 (configuration not stated) |  | inactive: 12.4%
30 | O=C(COC(=O)CNC(=O)c1ccccc1Cl)NC1CC1 |  | inactive: -0.698%
31 | CN(CC(=O)Nc1c(Cl)cccc1Cl)C(=O)C1CSC2(C)CCC(=O)N12 (configuration not stated) |  | inactive: 8.03%
32 | Cc1cc(C)c2c(N)c(C(=O)N/N=C/c3cccs3)sc2n1 | inconclusive [inhibitor, partial curve] | 
33 | CC(C)(C)C1CCc2c(C(=O)NNC(=O)CCCC(=O)O)csc2C1 (configuration not stated) |  | inconclusive: -30.5% [inhibitor]
34 | CCN(CC)S(=O)(=O)c1ccc2c(c1)N(CC(=O)NCCCN1CCN(c3cc(C)ccc3C)CC1)C(=O)CO2 | active: 4.61 µM | 
35 | COc1cccc(C2CC(c3ccc(C(C)C)cc3)n3nc(N)nc3N2)c1 (configuration not stated) |  | inconclusive: -30.7% [inhibitor]
36 | CC(C)c1ccc(CNCCSc2nnnn2-c2ccccc2)cc1 | active: 25.9 µM | 
37 | COc1ccc(Cl)cc1NC(=O)CN(C)CC(=O)Nc1cc(OC)c(OC)c(OC)c1 | active: 4.11 µM | 
38 | CCNC(=O)C1CCCN(c2nn3cc(-c4ccc(C)cc4)nc3s2)C1 (configuration not stated) | active: 23.1 µM | 
39 | CCOC(=O)c1cc(-c2cccc(C(F)(F)F)c2)nc2nc(SC)[nH]c(=O)c12 | inconclusive [inhibitor, single point] | 
40 | FC(F)(F)c1ccccc1-c1cncnc1NCCc1cnc[nH]1 | inconclusive [inhibitor, single point] | 
41 | COc1ccc(CN(Cc2cc3cc(C)ccc3[nH]c2=O)C(=O)N(C)C)cc1 | inconclusive [inhibitor, single point] | 
42 | NC(=O)CCC(NC(=O)OCc1ccccc1)C(=O)OCC(=O)c1ccccc1 (configuration not stated) |  | inactive: -18.6%
43 | CCOc1ccc(S(=O)(=O)N2CCN(c3ncccn3)CC2)cc1 |  | inconclusive: -34.1% [inhibitor]
44 | Cc1cc(C)cc(NC(=O)C2CCN(c3nc4ccccc4nc3C(F)(F)F)CC2)c1 | inconclusive [inhibitor, partial curve] | 
45 | CCOC(=O)Cc1nn(CCc2ccccn2)c(=O)c2ccccc12 |  | inactive: -3.16%
46 | Cc1cccc(C)c1NC(=O)CN(C)C(=O)CN1C(=O)NC(C)(C)C1=O |  | inactive: 19.8%
47 | COc1cc2c(cc1OC)CN(C(=S)Nc1ccc(OC(F)F)cc1)CC2 | inconclusive [inhibitor, single point] | 
48 | Cc1nc(NC(=O)c2cccnc2)ccc1Br | inconclusive [inhibitor, full curve, poor fit] | 

Row | Compound | Potency | activity change, negative = growth inhibition
49 | OC(CNCc1ccco1)Cn1c2ccccc2c2ccccc21 (configuration not stated) | inconclusive [inhibitor, single point] | 
50 | CC(NC(=O)COc1cccnc1[N+](=O)[O-])c1ccc(Cl)cc1Cl (configuration not stated) |  | inactive: -2.29%
51 | CC(C)c1ccc([C@@H]2O[C@H](CCc3ccccc3)Cc3[nH][nH]c(=O)c32)cc1 | inconclusive [inhibitor, single point] | 
52 | COc1ccc(CNc2ncnc3ccc(-c4c(C)noc4C)cc23)c(OC)c1 | inconclusive [inhibitor, single point] | 
53 | O=C(Nc1ccc(F)cc1F)Nc1sccc1-c1nc2ccccc2s1 | inconclusive [inhibitor, single point] | 
54 | O=C1NN=C(c2ccc(Cl)cc2)CC1c1c[nH]c2ccccc12 (configuration not stated) | inconclusive [inhibitor, single point] | 
55 | CCc1nc(Nc2ccccc2F)c2oc3ccccc3c2n1 | inconclusive [inhibitor, partial curve, poor fit] | 
56 | Cc1ccccc1C(=O)Nc1ccc(C(=O)N2CCCC(O)c3cc(Cl)ccc32)c(C)c1 (configuration not stated) | inconclusive [inhibitor, single point] | 
57 | CC(C)COc1ccc(C(=O)N(Cc2cccc(F)c2)C2CCS(=O)(=O)C2)cc1 (configuration not stated) | inconclusive [inhibitor, single point] | 
58 | Cc1cccc(C)c1NC(=O)C1c2ccccc2OCC(=O)N1Cc1ccccc1 (configuration not stated) | inconclusive [inhibitor, single point] | 
59 | CCOc1ccc(S(=O)(=O)NCc2cccn2Cc2cccc(C)c2)cc1 | inconclusive [inhibitor, single point] | 
60 | CCN(c1ccccc1)S(=O)(=O)c1cc(C(=O)OC2CCOC2=O)ccc1C (configuration not stated) |  | inactive: 20.5%
61 | CCc1n[nH]c(=S)n1/N=C/c1ccccn1 |  | inactive: -20.5%
62 | CCOC(=O)c1cnc2ccc(OCC)cc2c1NCCc1ccc(OC)c(OC)c1 | active: 2.31 µM | 
63 | CCOC(=O)c1cc(-c2ccccc2)n(-c2cccc(C(=O)NC(C)(C)C)c2)c1C | inconclusive [inhibitor, single point] | 
64 | CCN(CC)S(=O)(=O)c1cc(NC(=S)NC(=O)C2CCCC2)ccc1C | active: 18.4 µM | 
65 | COc1ccc(C2c3c(oc4ccccc4c3=O)C(=O)N2c2ccccn2)cc1 (configuration not stated) | inconclusive [inhibitor, single point] | 
66 | COCCC(=O)Nc1c(-c2ccccc2)c2cc(Br)ccc2[nH]c1=O |  | inactive: 6.03%
67 | NC(=O)CC(NC(=O)c1ccccc1)c1ccc(NC2CCC2)c([N+](=O)[O-])c1 (configuration not stated) | inconclusive [inhibitor, single point] | 
68 | CCOc1ccc(NS(=O)(=O)c2cnc(Cl)c(Cl)c2)cc1 | inconclusive [inhibitor, single point] | 
69 | CCOc1ccc(-n2c(C)c(C(=O)O)c3cc(OC)ccc32)cc1 |  | inactive: -4.78%
70 | CCOc1cc(/C=C2\C(=O)N(c3nc(-c4ccc(Br)cc4)cs3)N=C2c2ccccc2)ccc1O | inconclusive [inhibitor, single point] | 
71 | Cn1c(NCCc2ccncc2)nc2cc(-c3ccsc3)sc2c1=O | active: 13 µM | 
72 | CC(C)(C)C(=O)N1CCN(c2ccc([N+](=O)[O-])c(NCC3CCCO3)c2)CC1 (configuration not stated) | inconclusive [inhibitor, single point] | 
